Source: patent publication US9717715B2, “Method of combination therapy using an anti-C-Met antibody” (Samsung Electronics Co., Ltd., priority 2013, dated 2017)

What was measured:
[1] = tested on: MKN45 gastric cancer cells; test: MKN45 gastric cancer mouse xenograft model; format: in vivo; details: 0.2 mg/kg-10 mg/kg i.v. once a week, 4 doses
Procedure: (§1) In order to identify anti-cancer effects of the 4 types of antibodies having improved affinities, as prepared in Example 5, a decrease in the size of tumor cells in a brain cancer or gastric cancer mouse xenograft model transplanted with U87MG brain cancer cells (Korean Cell Line Bank) or MKN45 gastric cancer cells (Japanese Cancer Research Bank, JCRB, Tokyo, Japan) was observed when the antibodies having improved affinities were administered thereto in vivo.
(§2) For MKN45 model (FIG. 6A), 5×10^6 MKN45 cells (100 uL) were administered via subcutaneous injection to 6 week-old male BALB/C nude mice (SLAC Laboratoris, Shanghai, China). For U87MG model (FIG. 6B), 2.5×10^6 U87MG cells were administered. One wee after the tumor inoculation, the mice were randomized into Vehicle (PBS) or huAbF46-H4-A1 treatment groups at a various doses (0.2 mg/kg-10 mg/kg). Each group consisted of 15 mice. For MKN45 model, each treatment was given once a week via intravenous route, for total of 4 doses. For U87MG model, the treatment was given every 10 days for total of 3 doses. […]

c-Met in MKN45 cells = biological target: T1, c-Met in MKN45 cells (Homo sapiens, UniProt P08581); test: Degree of degradation of c-Met (total c-Met ELISA); format: cell-based; details: 5 ug/ml, 24 hours
T1 construct: MKN45 gastric cancer cells on which c-Met is expressed; endogenous in cells; host or cells: MKN45 gastric cancer cells (JCRB)
Procedure: In order to identify anti-cancer effects of the 4 types of antibodies having improved affinities, as prepared in Example 5, the degree of degradation of c-Met bound to the antibodies was evaluated. A relative total amount of c-Met was obtained by measuring the change in the total amount of c-Met after the antibody binds to c-Met to degrade c-Met via internalization, and thus the efficacy of the antibody was evaluated.
(§3) MKN45 cells (2×10^5 cells/ml) and each of the antibodies (5 ug/ml) were simultaneously introduced to a 96-well plate and incubated for 24 hours. Then, lysis of the cells treated with antibodies was performed and the change in the total amount of c-Met was measured using a Human total HGF R/c-Met ELISA KIT (R&D systems, DYC358) and analyzed.
as §3, with “In order to identify anti-cancer effects of the 3 types of antibodies having improved affinities, as prepared in Example 11, the degree of degradation of c-Met bound to the antibody was evaluated. MKN45” for “MKN45”, “and a” for “and the”, “change of” for “change in”

human c-Met protein = human c-Met protein (Homo sapiens, UniProt P08581); test: Biacore binding affinity to c-Met antigen; details: antibody immobilized on CM5 chip, human c-Met 0.39 nM to 100 nM
Procedure: Affinities of the 4 types of antibodies against c-Met antigen prepared in Example 7 were measured by using a Biacore (GE healthcare). About 80 to 110 RU of each antibody was immobilized on a CM5 chip, 9 different concentrations ranging from 0.39 nM to 100 nM of human c-Met protein, as an antigen, were injected at a rate of 30 ul/min to obtain kon values and koff values as shown in Table 3. Then, KD values were calculated based thereon.

U87MG brain cancer cells = test: U87MG brain cancer mouse xenograft model; format: in vivo; details: 0.2 mg/kg-10 mg/kg, every 10 days, 3 doses
Procedure: as §1, §2

[2] = tested on: Akt phosphorylation in Caki-1 cells; test: Akt phosphorylation (phospho-AKT1 Ser473 sandwich ELISA); format: cell-based; details: 5 ug/ml, 30 minutes
Source text: Cellular processes regulated by Akt include cell proliferation, cell survival, cell size control, and response to nutrient availability, intermediary metabolism, angiogenesis, and tissue invasion. All these processes represent characteristics of cancer and many oncoproteins and tumor suppressors intersect in the Akt pathway, finely regulating cellular functions at the interface of signal transduction and classical metabolic regulation. Thus, as the content of phosphorylated Akt that is an active form increases, the activity of cancer cells increases. Here, the degree of inhibiting Akt phosphorylation by the 4 types of antibodies having improved affinities was evaluated.
To compare agonism of the 4 types of antibodies having improved affinities, as prepared in Example 5, Caki-1 cells (Korean Cell Line Bank) were used to confirm the degree of Akt phosphorylation. Mouse IgG was used as a negative control, and antibody 5D5 (a known agonist) was used as a positive control.
2×10^5 cells/ml of Caki-1 cells were introduced to a 96-well plate, and after 24 hours, each of 5 ug/ml of the antibodies was treated in serum free medium for 30 minutes. Lysis of the cells treated with the antibodies was performed and the degree of Akt phosphorylation was measured using a PathScan phospho-AKT1 (Ser473) chemiluminescent Sandwich ELISA kit (Cell Signaling, cat. no #7134S). […]

[3] = tested on: NCI-H441 human lung cancer cells; test: BrdU assay (agonism / safety); format: cell-based; details: 10 ug/ml
Procedure: A BrdU assay was performed using the antibodies having improved affinities in order to evaluate safety of the antibodies. NCI-H441 (ATCC Cat. # HTB-174), human lung cancer cells, were suspended in a RPMI 1640 medium (Gibco) (2×10^5 cell/ml) to prepare a suspension, and about 100 ul of the suspension was introduced to each well of a 96-well tissue culture plate (Corning, Lowell, Mass.). The suspension was incubated at 37° C. in 5% (v/v) CO2 conditions for 24 hours, and then the medium was completely removed and replaced with a RPMI 1640 diluted with the antibody. After incubating the suspension at 37° C. in 5% (v/v) CO2 conditions for 21 hours, 5-bromo-2′-deoxyuridine (BrdU) was added and the BrdU assay (Roche, Indianapolis, Ind.) was performed after a further 3 hours of incubation. After denaturing/fixing cells on the plate, an anti-BrdU antibody was added thereto and a substrate was added after an hour to measure a color reaction using an ELISA spectraMax reader (Molecular Devices, Sunnyvale, Calif.) at 370 nm. Media was used as a negative control, and an antibody 5D5 (ATCC Cat. # HB11895 separated from hybridoma cells and purified) well known as an agonist was used as a positive control.

Sequence of human c-Met protein (P08581 25-1390): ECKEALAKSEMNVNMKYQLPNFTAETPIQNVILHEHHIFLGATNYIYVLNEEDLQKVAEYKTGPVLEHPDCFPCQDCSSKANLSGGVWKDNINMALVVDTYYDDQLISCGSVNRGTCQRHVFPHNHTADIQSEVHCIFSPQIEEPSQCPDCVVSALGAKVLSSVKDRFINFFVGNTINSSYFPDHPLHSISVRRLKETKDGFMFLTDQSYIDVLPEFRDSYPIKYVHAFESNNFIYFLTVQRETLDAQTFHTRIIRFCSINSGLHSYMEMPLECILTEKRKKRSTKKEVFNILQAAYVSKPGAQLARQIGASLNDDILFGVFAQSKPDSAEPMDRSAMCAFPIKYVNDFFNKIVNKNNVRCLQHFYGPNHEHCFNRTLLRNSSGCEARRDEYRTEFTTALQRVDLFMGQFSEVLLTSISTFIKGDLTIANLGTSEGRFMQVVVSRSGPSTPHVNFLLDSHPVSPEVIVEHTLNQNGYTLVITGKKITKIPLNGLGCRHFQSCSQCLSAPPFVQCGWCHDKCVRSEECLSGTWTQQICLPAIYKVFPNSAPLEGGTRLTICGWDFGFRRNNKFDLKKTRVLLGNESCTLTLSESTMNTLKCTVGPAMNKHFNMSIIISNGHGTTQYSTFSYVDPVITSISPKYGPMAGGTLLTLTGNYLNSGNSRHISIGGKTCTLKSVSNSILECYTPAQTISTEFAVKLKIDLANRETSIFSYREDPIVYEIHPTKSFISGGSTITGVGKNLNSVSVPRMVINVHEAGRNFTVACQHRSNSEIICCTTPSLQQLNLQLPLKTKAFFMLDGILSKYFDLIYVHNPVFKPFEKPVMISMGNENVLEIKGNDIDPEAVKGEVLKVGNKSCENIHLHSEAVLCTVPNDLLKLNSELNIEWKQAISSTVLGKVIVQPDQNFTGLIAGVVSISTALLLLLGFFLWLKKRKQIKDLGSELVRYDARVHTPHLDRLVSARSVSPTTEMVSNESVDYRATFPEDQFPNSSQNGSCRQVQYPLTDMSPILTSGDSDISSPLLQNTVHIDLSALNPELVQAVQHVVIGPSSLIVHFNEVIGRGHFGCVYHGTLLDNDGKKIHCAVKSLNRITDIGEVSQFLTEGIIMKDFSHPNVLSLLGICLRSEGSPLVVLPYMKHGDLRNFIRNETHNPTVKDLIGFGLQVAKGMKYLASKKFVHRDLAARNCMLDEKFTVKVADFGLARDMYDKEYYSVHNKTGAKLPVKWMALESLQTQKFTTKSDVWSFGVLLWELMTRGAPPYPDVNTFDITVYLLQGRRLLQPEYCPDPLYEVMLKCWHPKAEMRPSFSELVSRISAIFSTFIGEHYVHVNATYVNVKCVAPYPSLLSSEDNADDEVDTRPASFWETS
T1 sequence (P08581 25-1390): as above

B1: huAbF46-H4-A1: affinity-improved huAbF46 IgG with U6-HC7 hinge, light chain from clone L3-1 (CDR-L3 SEQ ID NO: 13) (antibody)
heavy: EVQLVESGGGLVQPGGSLRLSCAASGFTFTDYYMSWVRQAPGKGLEWLGFIRNKANGYTTEYSASVKGRFTISRDNSKNTLYLQMNSLRAEDTAVYYCARDNWFAYWGQGTLVTVSSASTKGPSVFPLAPSSKSTSGGTAALGCLVKDYFPEPVTVSWNSGALTSGVHTFPAVLQSSGLYSLSSVVTVPSSSLGTQTYICNVNHKPSNTKVDKKVEPKSCDCH[left out - human IgG1 Fc]
light: DIQMTQSPSSLSASVGDRVTITCKSSQSLLASGNQNNYLAWHQQKPGKAPKMLIIWASTRVSGVPSRFSGSGSGTDFTLTISSLQPEDFATYYCQQSYSRPYTFGQGTKVEIKRTVAAPSVFIFPPSDEQLKSGTASVVCLLNNFYPREAKVQWKVDNALQSGNSQESVTEQDSKDSTYSLSSTLTLSKADYEKHKVYACEVTHQGLSSPVTKSFNRGEC
- tumor growth inhibiting effect (tumor volume) [1]: dose-dependent tumor growth inhibiting effects
- increase of degree of degradation of c-Met compared to cells treated with huAbF46 (c-Met in MKN45 cells): about 37%
- koff (human c-Met protein): 4.53e-05 s⁻¹
- kon (human c-Met protein): 739000 M⁻¹ s⁻¹
- tumor growth inhibiting effect (tumor volume) (U87MG brain cancer cells): dose-dependent tumor growth inhibiting effects
- degree of Akt phosphorylation relative to huAbF46 (before affinity was improved) [2]: about 49%
- safety improved (agonism side effects reduced) in BrdU assay [3]: 25%
